According to the supplement of paper PMC4604168 (melanoma cell lines):
The list shows a part of the results. Repeats are few or missing, and single values can be far off.

How the values were obtained:
Test in all cases: cell count relative to DMSO control; melanoma cells; higher = more viable cells
Details in all cases: library dose: low library concentration; 72 h
COLO792 = tested on: COLO792
COLO800 = tested on: COLO800
COLO829 = tested on: COLO829
G361 = tested on: G361
IPC-298 = tested on: IPC-298
IST-MEL1 = tested on: IST-MEL1
LB2518-MEL = tested on: LB2518-MEL
LOXIMVI = tested on: LOXIMVI
MEL-HO = tested on: MEL-HO
MZ2-MEL = tested on: MZ2-MEL
MeWo = tested on: MeWo
RPMI7951 = tested on: RPMI7951
RVH-421 = tested on: RVH-421
SkMel28 = tested on: SkMel28
SkMel2 = tested on: SkMel2
SkMel30 = tested on: SkMel30
SkMel5 = tested on: SkMel5
UACC257 = tested on: UACC257
UACC62 = tested on: UACC62
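Further: cell number obtained by counting DAPI-stained nuclei in high-throughput microscope images with image analysis software, screen run in 1,536-well plates.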

| Structure (SMILES) | cell count (COLO792) [%] | cell count (COLO800) [%] | cell count (COLO829) [%] | cell count (G361) [%] | cell count (IPC-298) [%] | cell count (IST-MEL1) [%] | cell count (LB2518-MEL) [%] | cell count (LOXIMVI) [%] | cell count (MEL-HO) [%] | cell count (MZ2-MEL) [%] | cell count (MeWo) [%] | cell count (RPMI7951) [%] | cell count (RVH-421) [%] | cell count (SkMel28) [%] | cell count (SkMel2) [%] | cell count (SkMel30) [%] | cell count (SkMel5) [%] | cell count (UACC257) [%] | cell count (UACC62) [%] |
| --- | --- | --- | --- | --- | --- | --- | --- | --- | --- | --- | --- | --- | --- | --- | --- | --- | --- | --- | --- |
| CN(c1ncccc1CNc1nc(Nc2ccc3c(c2)CC(=O)N3)ncc1C(F)(F)F)S(C)(=O)=O + COC(=O)c1sccc1S(=O)(=O)Nc1ccc(Nc2ccccc2)cc1OC [GSK0660] (first compound 0.08 µM, partner dose 1 µM) | 90.6 | 147 | 78.1 | 100 | 96.6 | 97.2 | 92.2 | 101 | 89.6 | 93 | 94.9 | 91.7 | 80.6 | 68.4 | 85.4 | 98.7 | 73.3 | 84.8 | 96.7 |
| C=C(c1ccc(C(=O)O)cc1)c1cc2c(cc1C)C(C)(C)CCC2(C)C [Bexarotene] + Cn1cc(/C=C2\C(=O)Nc3cccnc32)c2ccccc21 [GW441756] (first compound 2 µM, partner dose 0.4 µM) | 87.2 | 98.2 | 60.9 | 87.5 | 96.9 | 102 | 130 | 113 | 81.3 | 91.9 | 89.2 | 71.5 | 83.4 | 69.2 | 102 | 91.7 | 78.5 | 78.6 | 88.2 |
| C=C(c1ccc(C(=O)O)cc1)c1cc2c(cc1C)C(C)(C)CCC2(C)C [Bexarotene] + O=S(=O)(c1ccccc1)N(CC(F)(F)F)c1ccc(C(O)(C(F)(F)F)C(F)(F)F)cc1 [T0901317] (first compound 2 µM, partner dose 1.4 µM) | 111 | 119 | 110 | 74.7 | 82.5 | 98.5 | 105 | 149 | 83.9 | 107 | 82.4 | 89.8 | 109 | 70.8 | 76.6 | 93.6 | 95.3 | 100 | 93.7 |
| CS(=O)(=O)c1ccc(C(=O)Nc2ccc(Cl)c(-c3ccccn3)c2)c(Cl)c1 [vismodegib] + CC(C)CCN1c2nc(Nc3cc(F)c(O)c(F)c3)ncc2N(C)C(=O)C1C [BID1870] (first compound 1 µM, partner dose 0.2 µM) | 97.5 | 123 | 90.7 | 83.6 | 97.6 | 99.7 | 95.7 | 113 | 80.9 | 110 | 96.4 | 98.4 | 96.9 | 101 | 102 | 88.5 | 104 | 74.9 | 105 |
| CN(c1ncccc1CNc1nc(Nc2ccc3c(c2)CC(=O)N3)ncc1C(F)(F)F)S(C)(=O)=O + C=CCn1c(=O)c2cnc(Nc3ccc(N4CCN(C)CC4)cc3)nc2n1-c1cccc(C(C)(C)O)n1 [MK1775] (first compound 0.08 µM, partner dose 0.02 µM) | 86.8 | 103 | 84.8 | 74.6 | 103 | 98.6 | 83.8 | 76.7 | 96.5 | 88.5 | 94.3 | 91.2 | 74 | 73.8 | 90 | 97.1 | 72.1 | 57.8 | 73.1 |
| C=C(c1ccc(C(=O)O)cc1)c1cc2c(cc1C)C(C)(C)CCC2(C)C [Bexarotene] + COc1cc(Nc2ncc(F)c(Nc3ccc4c(n3)NC(=O)C(C)(C)O4)n2)cc(OC)c1OC [Tamatinib] (first compound 2 µM, partner dose 0.4 µM) | 75.1 | 106 | 76.9 | 65.6 | 90.9 | 92.9 | 94.9 | 81.9 | 84.2 | 94.1 | 77 | 90.3 | 111 | 59.4 | 84.8 | 93.8 | 83.2 | 86.9 | 81 |
| CCCS(=O)(=O)Nc1ccc(F)c(C(=O)c2c[nH]c3ncc(Cl)cc23)c1F + Cc1ccc(NC(=O)c2cccc(N(C)C)c2)cc1NC(=O)c1ccc(O)cc1 [ZM336372] (first compound 0.08 µM, partner dose 2 µM) | 87.4 | 95.7 | 103 | 94.7 | 84.7 | 94.3 | 86.3 | 91.3 | 81.8 | 82.8 | 104 | 89.8 | 71.7 | 80 | 103 | 86.2 | 102 | 58.6 | 63.1 |
| CN(c1ncccc1CNc1nc(Nc2ccc3c(c2)CC(=O)N3)ncc1C(F)(F)F)S(C)(=O)=O + NCC(=O)Nc1ccc(-n2nc(C(F)(F)F)cc2-c2ccc3c(ccc4ccccc43)c2)cc1 [OSU03012] (first compound 0.08 µM, partner dose 1 µM) | 70.2 | 159 | 49 | 88.6 | 87.1 | 92 | 86.2 | 126 | 76.6 | 82.7 | 59.7 | 68.6 | 103 | 60.2 | 80.3 | 61.1 | 82 | 78.8 | 90.7 |
| CCCS(=O)(=O)Nc1ccc(F)c(C(=O)c2c[nH]c3ncc(Cl)cc23)c1F + Cn1cncc1[C@@](N)(c1ccc(Cl)cc1)c1ccc2c(c1)c(-c1cccc(Cl)c1)cc(=O)n2C [tipifarnib] (first compound 0.08 µM, partner dose 0.01 µM) | 99.8 | 74.6 | 95.3 | 91.7 | 93.9 | 84.7 | 94.9 | 87.9 | 91.6 | 104 | 87.8 | 93 | 77.8 | 80.3 | 83.1 | 121 | 112 | 53.6 | 62.1 |
| C=C(c1ccc(C(=O)O)cc1)c1cc2c(cc1C)C(C)(C)CCC2(C)C [Bexarotene] + Cc1cc([N+](=O)[O-])ccc1NS(=O)(=O)c1cc(Cl)ccc1Cl [FH535] (first compound 2 µM, partner dose 1 µM) | 78.7 | 128 | 112 | 74.1 | 86.5 | 83.2 | 94.3 | 156 | 95.2 | 92.3 | 90.5 | 92.6 | 79.7 | 70.4 | 97.5 | 105 | 80.6 | 107 | 78.6 |
| CN(c1ncccc1CNc1nc(Nc2ccc3c(c2)CC(=O)N3)ncc1C(F)(F)F)S(C)(=O)=O + Cc1cc(N2CCOCC2)cc2[nH]c(-c3c(NC[C@@H](O)c4cccc(Cl)c4)cc[nH]c3=O)nc12 [BMS536924] (first compound 0.08 µM, partner dose 0.2 µM) | 76.5 | 58.4 | 92.9 | 86 | 98.1 | 99 | 103 | 104 | 93.9 | 94.7 | 101 | 86.7 | 87.3 | 106 | 93.9 | 91.9 | 91.9 | 75.9 | 107 |
| CN(c1ncccc1CNc1nc(Nc2ccc3c(c2)CC(=O)N3)ncc1C(F)(F)F)S(C)(=O)=O + COc1cc(Nc2ncc(F)c(Nc3ccc4c(n3)NC(=O)C(C)(C)O4)n2)cc(OC)c1OC [Tamatinib] (first compound 0.08 µM, partner dose 0.4 µM) | 48.3 | 88 | 67.5 | 102 | 85.9 | 93.6 | 90.8 | 54.8 | 92.5 | 75.9 | 93.4 | 66.2 | 68.6 | 78.1 | 93 | 85.2 | 92.7 | 48.6 | 75.5 |
| NC1(c2ccc(-c3nc4ccn5c(=O)[nH]nc5c4cc3-c3ccccc3)cc2)CCC1 + COc1ccc2c(c1)CCC1C2CCC2(C)C(NCCCCCCN3C(=O)C=CC3=O)CCC12 [U73122] (first compound 0.4 µM, partner dose 0.4 µM) | 66.7 | 70.1 | 110 | 86.4 | 90.3 | 102 | 81.7 | 77.6 | 87.3 | 103 | 80.7 | 75.3 | 107 | 80.4 | 83.7 | 76.8 | 92.4 | 72.2 | 83.2 |
| CS(=O)(=O)c1ccc(C(=O)Nc2ccc(Cl)c(-c3ccccn3)c2)c(Cl)c1 [vismodegib] + O=C(CCCCCCC(=O)Nc1ccccc1)NO [vorinostat] (first compound 1 µM, partner dose 0.08 µM) | 90.8 | 76.3 | 92.9 | 98.4 | 97.2 | 97.4 | 97.2 | 136 | 102 | 107 | 101 | 99.7 | 110 | 75.5 | 95.9 | 85.2 | 86.3 | 79 | 80.3 |
| NC1(c2ccc(-c3nc4ccn5c(=O)[nH]nc5c4cc3-c3ccccc3)cc2)CCC1 + NC(=O)Nc1cc(-c2cccc(F)c2)sc1C(=O)N[C@H]1CCCNC1 [AZD7762] (first compound 0.4 µM, partner dose 0.02 µM) | 78.5 | 69.1 | 104 | 96.7 | 94.7 | 112 | 123 | 126 | 87.8 | 96 | 103 | 96.2 | 121 | 65.8 | 92.5 | 90 | 93.9 | 108 | 82.9 |
| C=C(c1ccc(C(=O)O)cc1)c1cc2c(cc1C)C(C)(C)CCC2(C)C [Bexarotene] + O=C(CCCCCCC(=O)Nc1ccccc1)NO [vorinostat] (first compound 2 µM, partner dose 0.08 µM) | 106 | 87.3 | 100 | 88.2 | 95 | 98.9 | 116 | 162 | 95.8 | 99.4 | 89.4 | 77.6 | 114 | 68.8 | 104 | 137 | 98.9 | 98.9 | 87.5 |
| NC1(c2ccc(-c3nc4ccn5c(=O)[nH]nc5c4cc3-c3ccccc3)cc2)CCC1 + NCC(=O)Nc1ccc(-n2nc(C(F)(F)F)cc2-c2ccc3c(ccc4ccccc43)c2)cc1 [OSU03012] (first compound 0.4 µM, partner dose 1 µM) | 81.3 | 64.9 | 66.6 | 104 | 85 | 95.3 | 88.6 | 132 | 78.1 | 97.2 | 67 | 99 | 114 | 74.1 | 69 | 58.6 | 93.6 | 106 | 90.1 |
| CN(c1ncccc1CNc1nc(Nc2ccc3c(c2)CC(=O)N3)ncc1C(F)(F)F)S(C)(=O)=O + CO[C@@H]1[C@H](N(C)C(=O)c2ccccc2)C[C@H]2O[C@]1(C)n1c3ccccc3c3c4c(c5c6ccccc6n2c5c31)C(=O)NC4 [Midostaurin] (first compound 0.08 µM, partner dose 0.08 µM) | 82.7 | 148 | 75.5 | 86.1 | 93.7 | 103 | – | 31.6 | 91.5 | – | 83.9 | 79.7 | 82.6 | 94.5 | 79.3 | 86.5 | 86.2 | 107 | 92.6 |
